Data on 56 variants can be found in the RNAGym collection of RNA variant scans (doi:10.7554/elife.90254).

Sequences and labels used below:
B1: LINE1-mini (parent)
chain: GGCAGAGCUCAACACAGCGUGGCAAAGUGGCUGUGGCUAGACUGCC

Read counts are not given, so values of variants with three or more changes are uncertain.

The series covers variants of B1. Kind of series: self-cleavage, relative activity (ratio to wild type); higher = more cleavage; in vitro, sequencing; the parent is a self-cleaving ribozyme.
Consider GGCAGAGCACAACACAGAGUGGCAAAGUGGCUGUGGCUACACUGCC [U9A C18A G40C], for which the self-cleavage amounted to 0.02. As for GGCAGAGCACAUCACAGCGUGCCAAAGUGUCUGUGGCUAGACUGCC [U9A A12U G22C G30U], the figure is 0.07. As for GGCAGAGCACAACGCAGCGUGGCAAAGUGGCUGAGGCUAGACUGAC [U9A A14G U34A C45A], the figure is 0.15; as for GGCAGAGCAGAACACAGCGUGGCAAUGGGGCUGUGGCUAGACUGCC [U9A C10G A26U U28G], 0.01; as for GGCAGAGCACAACACACCGUGGCAAAGUGGCUGUGGAUAGACUGCC [U9A G17C C37A], 0.14.

Turning to GGCAGAGCACAACACUGCGUGGCAUAGUGGCUGUGGCUAGACUGCC [U9A A16U A25U], the self-cleavage worked out at 0.02. Regarding GGCAGAGCACAACACAUCAUGGCAAAGUGGCUGUGGCUAGACUGCC [U9A G17U G19A], the self-cleavage was found to be 0.02. As for GGCAGAGCACAACUCAGCGUGGCAAAGUAGCUGUGGCUAAACUGCC [U9A A14U G29A G40A], the figure is 0.13; as for GGCAGAGCACAUCACAGCGUGGCAAAGGGGCUGUGGCUAGACUGCC [U9A A12U U28G], 0.22. The figure for GGCAGAGCACAACACAGCGUGGCACAGCGGCUGUGACUAGACUGCC [U9A A25C U28C G36A] is 0.23; for GGCAGAGCACAACACAGCGUGGUAAAGUGGCUGUGGCUAGACUGCA [U9A C23U C46A] it is 0.35. Consider GGCAGAGCACAACACAGCGUGGCAAAGUGUCUGUGGCUAUACUGCC [U9A G30U G40U], for which the self-cleavage was 0.02. The figure for GGCAGAGCACAACACAGCGUGGUAAUGUGGCUGUGGCUAGACUGCC [U9A C23U A26U] is 0.12; for GGCAGAGCACAACACAGGGUGGCAAAGUGACUGUGGCUAUACUGCC [U9A C18G G30A G40U] it is 0.06.

Regarding GGCAGAGCACAACACAGCGUGGCAAAGUGGAUGUUGCUAGACUGCC [U9A C31A G35U], the self-cleavage was 0. As to GGCAGAGCACAACACACCGUGGCAAAGUGGCUGUGGCUAUACUGCC [U9A G17C G40U], the self-cleavage was 0.17. Regarding GGCAGAGCACAACACAGCGUGGCAAAGUGCCUAUGGCUAGACCGUC [U9A G30C G33A U43C C45U], the self-cleavage worked out at 0.02. The figure for GGCAGAGCACAACACAGCGUGGCCAAGUGGUUGUGGCUAGACUGCC [U9A A24C C31U] is 0; for GGCAGAGCACAACACAGCGUGGCAAAGUGGUUGUUGCUAGACUGCC [U9A C31U G35U] it is 0. As for GGCAGAGCACAACACAGCGUGGAGAAGUGGCUGUGGCUAGACUGCC [U9A C23A A24G], the self-cleavage came to 0.24.

With GGCAGAGCACAACCCAGCGAGGCAAAGUGGCUGUGGCUAGACUGCC [U9A A14C U20A], the self-cleavage stood at 0.07.

Consider GGCAGAGCACAACACAGGGUGGCAACGUGGCUGUGGCUAGACUGCC [U9A C18G A26C], for which the self-cleavage is 0.1. In the case of GGCAGAGCACAAUACAGCGCGGCAAAGUGGCUGUGGCUAGACUGCC [U9A C13U U20C], the self-cleavage is 0.2. The figure for GGCAGAGCACAACACAGCGUGACAAAGUGGGUCUGACUACUCUGUC [U9A G22A C31G G33C G36A G40C A41U C45U] is 0.13; for GGCAGAGCACAACAAAGCCUGGCAAAGUGGCUGUGGCUAGACUGCC [U9A C15A G19C] it is 0.57; for GGCAGAGCACAACACAGCGUAGAAUAGUGGAUGUGGCUAUACUGCC [U9A G21A C23A A25U C31A G40U] it is 0.03.

Take GGCAGAGCACAACACACAGUGGCAAAGUUGCCGUGGCUAGACUGCC [U9A G17C C18A G29U U32C]: the self-cleavage was determined as 0.1. As for GGCAGAGCAUAACACAUCGUGGAAAAUUGUCUGUGGCUAGACUGCC [U9A C10U G17U C23A G27U G30U], the figure is 0.06; as for GGCAGAGCAAAAGAAAGCGUGGCAAAGUGUCUGUGGCUCUACUGCC [U9A C10A C13G C15A G30U A39C G40U], 0.02. The figure for GGCAGAGCACAACACAGCGUGGGAAAGUGGCUGAGGCUAGACUGCC [U9A C23G U34A] is 0.24. With GGCAGAGCAGAACACAGCUUGGCCAAGCGGCUGUGGCUAGACUGCC [U9A C10G G19U A24C U28C], the self-cleavage came out at 0.03.

For the variant GGCAGAGCAGAAAAGAGCGUGGCAAAGUGGCUGUGGCUAGAUUGCC [U9A C10G C13A C15G C42U], the self-cleavage was 0.05.

For GGCAGAGCACAACACAGCGUGGUAAAGUGGCCGUGGCUAGACUGCC [U9A C23U U32C], the self-cleavage is 0.29. The figure for GGCAGAGCACAACACAGCGUGGAAAAGUUGCUGUGGCUAUACUGCC [U9A C23A G29U G40U] is 0.02; for GGCAGAGCACAAGACGGCGUGGCAAAGUGGGUGUGGCUAGACGGCC [U9A C13G A16G C31G U43G] it is 0.02; for GGCAGAGCACAACACAGCGUGGCAAUGUGGUUAUGGCUAGACUGGC [U9A A26U C31U G33A C45G] it is 0.34.

For the variant GGCAGAGCACAACAGAGCGUUGCAAAGUGGCUGUGGCUAGUCUGCC [U9A C15G G21U A41U], the self-cleavage is 0.04. The figure for GGCAGAGCACAACACAGCGUGGCAAAGUGGCUGUGGCUAGCCUGCA [U9A A41C C46A] is 0.05; for GGCAGAGCACAACACAGCGUGGCUAAGUGGCUCUGGCUAGACUGCC [U9A A24U G33C] it is 0.03; for GGCAGAGCAUAACACAGCGUGGCACAGUGGCUGUGGCUCGACUGCC [U9A C10U A25C A39C] it is 0.01. The figure for GGCAGAGCAGAACAAAGCGUGGCAAAGUGGCUGUGGCUAGACUGCC [U9A C10G C15A] is 0.02; for GGCAGAGCACAAUACAGCGUGGCAAAUUGGCUGGGGCUAGACUGCC [U9A C13U G27U U34G] it is 0.13; for GGCAGAGCACAACACAGCGUGGCCAAGUGGCUGUGGAAAGACUGCC [U9A A24C C37A U38A] it is 0.05. GGCAGAGCACAACACAGCGUGGCAAAGUGGUUAUGGCUAGACUGCC [U9A C31U G33A]: the self-cleavage worked out at 0.31. As for GGCAGAGCACAACGCAGCGUGGCAAAGUGUCUGUCGCUAGACUGCC [U9A A14G G30U G35C], the figure is 0.06; as for GGCAGAGCACAACACAGCCUGGCAAAGUGGCUGUGGCUAUACUGCC [U9A G19C G40U], 0.06; as for GGCAGAGCACAACGCAGCGUGGCUAAGUGGUUGUGGCUAGACUGCC [U9A A14G A24U C31U], 0.01. As for GGCAGAGCACAACACAGCGUGGCAAAGUCGCUGUAGCUAGACUUCC [U9A G29C G35A G44U], the figure is 0.1; as for GGCAGAGCACAACACAGCGUGGCAAAGUAGCUGUGGCUAAACUGCC [U9A G29A G40A], 0.04; as for GGCAGAGCACAACACAGCGUGGCAAAGUGGGUGAUGCUAGACUGCC [U9A C31G U34A G35U], 0.03.

For the variant GGCAGAGCACAACACAGCGUGGCAAAGUGGCUAUGGCUAGACCGCC [U9A G33A U43C], the self-cleavage was determined as 0.08.

In the case of GGCAGAGCACAACACAGCGUGGCAAACGGGCUGUGGCUAGACUACC [U9A G27C U28G G44A], the self-cleavage was 0.09. In the case of GGCAGAGCACAACACAGCGUGGCAAAUUGGCUGUGGCUGGACUGCC [U9A G27U A39G], the self-cleavage worked out at 0.03. The figure for GGCAGAGCACAACACAGCGUGGCAAAGUGGCUGUUGCUAGACUGAC [U9A G35U C45A] is 0.03; for GGCAGAGCACAACCCAGCCUGGCAAAGUGGCUGUGGCUAGAAUGCC [U9A A14C G19C C42A] it is 0.04. With GGCAGAGCACAACACAGGGUGGCAAAGUGGCGUUGGCUAGACUGCC [U9A C18G U32G G33U], the self-cleavage was found to be 0.03.
